# Results taken from the supplement of paper PMC8728848.
# The list shows a part of the results.
# Key:
# Test in all cases: glycan array binding signal (z-score within array); higher = stronger binding
# Conditions in all cases: glycan notation: IUPAC condensed, linker removed
# [1] = target: Fuc(a1-2)Gal
# In short: (§1)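 The Consortium for Functional Glycomics database supplied 3228 glycan arrays, of which those lacking an available protein sequence were dropped. The binding signal, a within-array Z-score, was averaged across arrays of the same protein sequence and across linkers. Negative scores can be read as non-binding.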
# [2] = target: Fuc(a1-2)Gal(b1-3)GalNAc
# In short: as §1
# [3] = target: Fuc(a1-2)Gal(b1-3)GalNAc(a1-3)[Fuc(a1-2)]Gal(b1-4)Glc
# In short: as §1
# [4] = target: Fuc(a1-2)Gal(b1-3)GalNAc(a1-3)[Fuc(a1-2)]Gal(b1-4)GlcNAc
# In short: as §1
# [5] = target: Fuc(a1-2)Gal(b1-3)GalNAc(b1-3)Gal
# In short: as §1
# [6] = target: Fuc(a1-2)Gal(b1-3)GalNAc(b1-3)Gal(a1-4)Gal(b1-4)Glc
# In short: as §1
# [7] = target: Fuc(a1-2)Gal(b1-3)GalNAc(b1-4)[Neu5Ac(a2-3)]Gal(b1-4)Glc
# In short: as §1
# [8] = target: Fuc(a1-2)Gal(b1-3)GlcNAc
# In short: as §1
# [9] = target: Fuc(a1-2)Gal(b1-3)GlcNAc(b1-2)Man(a1-3)[Fuc(a1-2)Gal(b1-3)GlcNAc(b1-2)Man(a1-6)]Man(b1-4)GlcNAc(b1-4)GlcNAc
# In short: as §1
# [10] = target: Fuc(a1-2)Gal(b1-3)GlcNAc(b1-2)Man(a1-3)[Fuc(a1-2)Gal(b1-3)GlcNAc(b1-2)Man(a1-6)]Man(b1-4)GlcNAc(b1-4)[Fuc(a1-6)]GlcNAc
# In short: as §1
# [11] = target: Fuc(a1-2)Gal(b1-3)GlcNAc(b1-3)Gal(b1-4)Glc
# In short: as §1
# [12] = target: Fuc(a1-2)Gal(b1-3)GlcNAc(b1-3)GalNAc
# In short: as §1
# [13] = target: Fuc(a1-2)Gal(b1-3)GlcNAc(b1-3)[Fuc(a1-2)Gal(b1-3)GlcNAc(b1-6)]GalNAc
# In short: as §1
# [14] = target: Fuc(a1-2)Gal(b1-3)GlcNAc(b1-3)[Gal(b1-4)GlcNAc(b1-6)]Gal(b1-4)Glc
# In short: as §1
# [15] = target: Fuc(a1-2)Gal(b1-3)GlcNAc(b1-3)[Neu5Ac(a2-6)Gal(b1-4)GlcNAc(b1-6)]Gal(b1-4)Glc
# In short: as §1
# [16] = target: Fuc(a1-2)Gal(b1-3)GlcNAc6S
# In short: as §1
# [17] = target: Fuc(a1-2)Gal(b1-3)[Fuc(a1-4)]GlcNAc
# In short: as §1
# [18] = target: Fuc(a1-2)Gal(b1-3)[Fuc(a1-4)]GlcNAc(b1-2)Man(a1-3)[Fuc(a1-2)Gal(b1-3)[Fuc(a1-4)]GlcNAc(b1-2)Man(a1-3)]Man(b1-4)GlcNAc(b1-4)GlcNAc
# In short: as §1
# [19] = target: Fuc(a1-2)Gal(b1-3)[Fuc(a1-4)]GlcNAc(b1-2)Man(a1-3)[Fuc(a1-2)Gal(b1-3)[Fuc(a1-4)]GlcNAc(b1-2)Man(a1-6)]Man(b1-4)GlcNAc(b1-4)[Fuc(a1-6)]GlcNAc(b1-4)[Fuc(a1-6)]GlcNAc
# In short: as §1
# [20] = target: Fuc(a1-2)Gal(b1-3)[Fuc(a1-4)]GlcNAc(b1-3)[Fuc(a1-3)[Gal(b1-4)]GlcNAc(b1-6)]Gal(b1-4)Glc
# In short: as §1
# [21] = target: Fuc(a1-2)Gal(b1-3)[Fuc(a1-4)]GlcNAc(b1-3)[Gal(b1-4)GlcNAc(b1-6)]Gal(b1-4)Glc
# In short: as §1
# [22] = target: Fuc(a1-2)Gal(b1-4)Glc
# In short: as §1
# [23] = target: Fuc(a1-2)Gal(b1-4)Glc6S
# In short: as §1
# [24] = target: Fuc(a1-2)Gal(b1-4)GlcNAc
# In short: as §1
# [25] = target: Fuc(a1-2)Gal(b1-4)GlcNAc(b1-2)Man
# In short: as §1
# [26] = target: Fuc(a1-2)Gal(b1-4)GlcNAc(b1-2)Man(a1-3)[Fuc(a1-2)Gal(b1-4)GlcNAc(b1-2)Man(a1-6)]Man(b1-4)GlcNAc(b1-4)GlcNAc
# In short: as §1
# [27] = target: Fuc(a1-2)Gal(b1-4)GlcNAc(b1-2)Man(a1-3)[Fuc(a1-2)Gal(b1-4)GlcNAc(b1-2)Man(a1-6)]Man(b1-4)GlcNAc(b1-4)[Fuc(a1-6)]GlcNAc
# In short: as §1
# [28] = target: Fuc(a1-2)Gal(b1-4)GlcNAc(b1-2)[Fuc(a1-2)Gal(b1-4)GlcNAc(b1-4)]Man(a1-3)[Fuc(a1-2)Gal(b1-4)GlcNAc(b1-2)Man(a1-6)]Man(b1-4)GlcNAc(b1-4)GlcNAc
# In short: as §1
# [29] = target: Fuc(a1-2)Gal(b1-4)GlcNAc(b1-3)Gal(b1-4)GlcNAc
# In short: as §1
# [30] = target: Fuc(a1-2)Gal(b1-4)GlcNAc(b1-3)Gal(b1-4)GlcNAc(b1-2)Man(a1-3)[Fuc(a1-2)Gal(b1-4)GlcNAc(b1-3)Gal(b1-4)GlcNAc(b1-2)Man(a1-6)]Man(b1-4)GlcNAc(b1-4)GlcNAc
# In short: as §1
binder,measurement,setting,value
GNL (Galanthus nivalis) (protein) MGHHHHHHHHYGTLENGHWLMVGMSIFSKDRTVELRMQDDGKLAIYYNDHCAWQSTAQQVNNAKGAVMQGDGNFCIYDKNGKATWHTNTAAPSGDSHTFVSVQDDGNLVLYKNNGATPIWSSKSNK,glycan array binding signal (z-score),[1],-0.071
same,glycan array binding signal (z-score),[2],-0.254
same,glycan array binding signal (z-score),[3],-0.245
same,glycan array binding signal (z-score),[4],-0.275
same,glycan array binding signal (z-score),[5],-0.245
same,glycan array binding signal (z-score),[6],-0.184
same,glycan array binding signal (z-score),[7],-0.202
same,glycan array binding signal (z-score),[8],-0.187
same,glycan array binding signal (z-score),[9],1.93
same,glycan array binding signal (z-score),[10],-0.017
same,glycan array binding signal (z-score),[11],-0.249
same,glycan array binding signal (z-score),[12],-0.167
same,glycan array binding signal (z-score),[13],-0.235
same,glycan array binding signal (z-score),[14],-0.277
same,glycan array binding signal (z-score),[15],-0.216
same,glycan array binding signal (z-score),[16],-0.251
same,glycan array binding signal (z-score),[17],-0.262
same,glycan array binding signal (z-score),[18],-0.212
same,glycan array binding signal (z-score),[19],-0.198
same,glycan array binding signal (z-score),[20],-0.176
same,glycan array binding signal (z-score),[21],-0.236
same,glycan array binding signal (z-score),[22],-0.212
same,glycan array binding signal (z-score),[23],-0.187
same,glycan array binding signal (z-score),[24],-0.168
same,glycan array binding signal (z-score),[25],-0.231
same,glycan array binding signal (z-score),[26],-0.162
same,glycan array binding signal (z-score),[27],-0.071
same,glycan array binding signal (z-score),[28],-0.229
same,glycan array binding signal (z-score),[29],-0.169
same,glycan array binding signal (z-score),[30],0.093
